# The supplement of paper PMC7826260
# The other results are listed elsewhere or left out. Each Rep nickase domain was tested in vitro on the same pool of single strands (1 h at 37 °C, 3 µM enzyme); the outer parts of the 90-letter strands are left off. Numbers give uncut DNA relative to the enzyme-free pool, as log2; more negative means more cut, near 0 not cut, and no call is made. Because reads are shares of a total, they shift together; values above 0 arise when much of the pool is cut.
# Key:
# Assay in all cases: uncleaved DNA left, log2 of reads against the no-enzyme library (log2 ratio); higher = less cleavage (more negative = more Rep cleavage of the k-mer); sequences stand for … in CTCGTCCG…ACCGGAGA
# [1] = test system: T1, Rep nickase domain of Muscovy duck circovirus
# T1 sequence (residues 1-111, tag not shown): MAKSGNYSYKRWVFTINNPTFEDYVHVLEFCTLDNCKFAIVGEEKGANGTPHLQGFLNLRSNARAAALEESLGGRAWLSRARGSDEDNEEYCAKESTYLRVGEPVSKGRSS
# Method: (§1)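 A pool of 90-nt single-stranded DNAs with seven random bases just before the constant AC of the nick site (name = the seven bases) was cut by 3 µM recombinant His6-SUMO-tagged Rep nickase domain (300 nM DNA, 50 mM HEPES pH 8.0, 50 mM NaCl, 1 mM MnCl2, 1 h, 37 °C, three replicates). Uncut DNA was amplified and sequenced.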
# [2] = test system: T2, Rep nickase domain of banana bunchy top virus
# T2 sequence (residues 1-94, tag not shown): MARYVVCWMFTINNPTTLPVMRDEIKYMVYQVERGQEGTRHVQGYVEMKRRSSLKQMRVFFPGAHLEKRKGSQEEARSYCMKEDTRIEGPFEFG
# Method: as §1
# [3] = test system: T3, Rep nickase domain of cabbage leaf curl virus
# T3 sequence (residues 1-116, tag not shown): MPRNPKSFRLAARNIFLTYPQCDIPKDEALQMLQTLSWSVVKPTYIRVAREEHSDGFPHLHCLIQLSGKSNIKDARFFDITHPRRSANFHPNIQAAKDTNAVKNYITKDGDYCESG
# Method: as §1
# [4] = test system: T4, Rep nickase domain of chickpea chlorotic dwarf virus
# T4 sequence (residues 1-124, tag not shown): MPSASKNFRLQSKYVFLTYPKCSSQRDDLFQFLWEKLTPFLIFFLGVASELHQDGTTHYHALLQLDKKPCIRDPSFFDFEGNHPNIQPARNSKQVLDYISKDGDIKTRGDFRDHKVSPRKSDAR
# Method: as §1
# [5] = test system: T5, Rep nickase domain of faba bean necrotic yellows virus
# T5 sequence (residues 1-98, tag not shown): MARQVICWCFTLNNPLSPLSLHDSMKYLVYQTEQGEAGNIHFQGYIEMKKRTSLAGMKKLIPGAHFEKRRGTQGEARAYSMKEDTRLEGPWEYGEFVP
# Method: as §1
# [6] = test system: T6, Rep nickase domain of maize striate mosaic virus
# T6 sequence (residues 1-117, tag not shown): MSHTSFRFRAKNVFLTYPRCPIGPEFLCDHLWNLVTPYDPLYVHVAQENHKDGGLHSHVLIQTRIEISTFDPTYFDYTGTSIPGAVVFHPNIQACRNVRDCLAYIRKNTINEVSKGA
# Method: as §1
# [7] = test system: T7, Rep nickase domain of porcine circovirus 2
# T7 sequence (residues 2-116, tag not shown): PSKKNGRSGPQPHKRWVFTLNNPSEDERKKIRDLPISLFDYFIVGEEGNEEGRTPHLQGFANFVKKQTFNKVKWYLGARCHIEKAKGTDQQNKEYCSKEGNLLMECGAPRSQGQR
# Method: as §1
# [8] = test system: T8, Rep nickase domain of tomato golden mosaic virus
# T8 sequence (residues 1-124, tag not shown): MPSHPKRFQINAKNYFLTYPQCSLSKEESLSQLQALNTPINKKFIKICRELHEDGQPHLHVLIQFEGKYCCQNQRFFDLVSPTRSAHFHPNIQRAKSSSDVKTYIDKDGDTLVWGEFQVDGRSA
# Method: as §1
# [9] = test system: T9, Rep nickase domain of tomato yellow leaf curl virus
# T9 sequence (residues 1-136, tag not shown): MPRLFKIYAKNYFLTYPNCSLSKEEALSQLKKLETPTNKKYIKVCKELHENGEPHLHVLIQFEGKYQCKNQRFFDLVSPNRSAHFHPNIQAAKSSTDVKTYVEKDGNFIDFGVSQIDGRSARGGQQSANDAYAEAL
# Method: as §1
# [10] = test system: T10, Rep nickase domain of wheat dwarf virus
# T10 sequence (residues 1-137, tag not shown): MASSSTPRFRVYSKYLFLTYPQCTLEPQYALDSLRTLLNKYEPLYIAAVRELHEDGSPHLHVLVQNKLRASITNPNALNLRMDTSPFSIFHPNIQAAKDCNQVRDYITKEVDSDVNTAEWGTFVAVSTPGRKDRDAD
# Method: as §1
Sequence,uncleaved DNA left (log2) [1],uncleaved DNA left (log2) [2],uncleaved DNA left (log2) [3],uncleaved DNA left (log2) [4],uncleaved DNA left (log2) [5],uncleaved DNA left (log2) [6],uncleaved DNA left (log2) [7],uncleaved DNA left (log2) [8],uncleaved DNA left (log2) [9],uncleaved DNA left (log2) [10]
GATATAA,0.0422,0.0222,0.199,0.603,0.0379,1.07,0.0879,0.106,0.0315,0.156
GGAGTTT,0.101,-0.0201,0.597,1.05,-0.0825,1.85,0.0748,0.0968,0.0138,0.0786
AGGGCCT,-0.0281,0.00396,0.387,0.713,0.00356,1.42,0.0737,0.0519,0.01,0.129
ACTCTTT,0.169,-0.12,-0.307,-2.39,0.0713,-0.729,-1.02,0.0593,-0.159,-0.0284
TTCACCG,0.0735,0.0512,-0.688,-0.974,0.0964,-0.987,0.128,-0.02,-0.0878,-0.0928
CTGGCCG,-0.0132,0.00105,0.111,0.491,-0.0864,0.193,0.0396,0.0341,-0.0382,-0.0204
TCCTATG,0.0331,0.0012,-0.465,-0.691,-0.174,-0.983,0.000262,-0.102,-0.0527,-0.158
CACGCGA,-0.0217,-0.0211,-0.77,-0.351,-0.0929,-0.77,-0.000893,-0.0684,-0.0173,-0.101
TTTCCTT,-0.0234,-0.0788,-0.0252,-2.16,-0.0919,-0.37,-0.953,-0.123,-0.0368,-0.0386
GCATGGT,-0.443,0.0959,0.109,-0.163,0.121,-0.248,-0.538,0.0266,0.0683,-0.00489
AATTTGT,-3.62,-3,-0.417,-1.4,0.0348,-1.39,-3.8,-0.056,-0.03,0.0159
AGCTATG,0.044,0.0294,-0.0788,0.607,-0.00787,1.4,0.0481,0.141,0.0694,0.11
TCCTCTA,0.0738,-0.138,-0.0144,-0.996,0.0743,-0.221,-0.246,-0.00846,0.0273,-0.0167
GGACAAG,0.212,0.048,0.76,1.82,0.00485,1.95,0.254,0.0575,0.0646,0.212
TGGTATA,-0.0174,0.059,0.274,-0.117,0.0265,0.939,-0.126,0.0727,0.0255,0.0983
